{"source": "the supplement of paper PMC8728848", "assay_in_all_cases": "glycan array binding signal (z-score within array); higher = stronger binding", "settings_in_all_cases": "glycan notation: IUPAC condensed, linker removed", "key": {"[1]": {"target": "Gal(b1-4)GlcNAc(b1-2)[Gal(b1-4)GlcNAc(b1-6)]Man(a1-6)[GlcNAc(b1-4)][Gal(b1-4)GlcNAc(b1-2)Man(a1-3)]Man(b1-4)GlcNAc(b1-4)GlcNAc", "method_in_brief": "(§1)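 Arrays were curated from the Consortium for Functional Glycomics database, 3228 in total, and kept only where the protein sequence was available. Binding is expressed as a within-array Z-score. This score was averaged across arrays of the same protein sequence at different concentrations or buffers and across linkers, and negative values can be read as non-binding.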"}, "[2]": {"target": "Gal(b1-4)GlcNAc(b1-2)[Gal(b1-4)GlcNAc(b1-6)]Man(a1-6)[GlcNAc(b1-4)][Gal(b1-4)GlcNAc(b1-2)[Gal(b1-4)GlcNAc(b1-4)]Man(a1-3)]Man(b1-4)GlcNAc(b1-4)[Fuc(a1-6)]GlcNAc", "method_in_brief": "as §1"}, "[3]": {"target": "Gal(b1-4)GlcNAc(b1-3)Gal(b1-3)GalNAc", "method_in_brief": "as §1"}, "[4]": {"target": "Gal(b1-4)GlcNAc(b1-3)Gal(b1-3)GlcNAc", "method_in_brief": "as §1"}, "[5]": {"target": "Gal(b1-4)GlcNAc(b1-3)Gal(b1-4)Glc", "method_in_brief": "as §1"}, "[6]": {"target": "Gal(b1-4)GlcNAc(b1-3)Gal(b1-4)GlcNAc", "method_in_brief": "as §1"}, "[7]": {"target": "Gal(b1-4)GlcNAc(b1-3)Gal(b1-4)GlcNAc(b1-2)Man(a1-3)[Gal(b1-4)GlcNAc(b1-3)Gal(b1-4)GlcNAc(b1-2)Man(a1-6)]Man(b1-4)GlcNAc(b1-4)GlcNAc", "method_in_brief": "as §1"}, "[8]": {"target": "Gal(b1-4)GlcNAc(b1-3)Gal(b1-4)GlcNAc(b1-2)Man(a1-3)[Gal(b1-4)GlcNAc(b1-3)Gal(b1-4)GlcNAc(b1-2)Man(a1-6)]Man(b1-4)GlcNAc(b1-4)[Fuc(a1-6)]GlcNAc", "method_in_brief": "as §1"}, "[9]": {"target": "Gal(b1-4)GlcNAc(b1-3)Gal(b1-4)GlcNAc(b1-2)[Gal(b1-4)GlcNAc(b1-3)Gal(b1-4)GlcNAc(b1-6)]Man(a1-6)[Gal(b1-4)GlcNAc(b1-3)Gal(b1-4)GlcNAc(b1-2)Man(a1-3)]Man(b1-4)GlcNAc(b1-4)GlcNAc", "method_in_brief": "as §1"}, "[10]": {"target": "Gal(b1-4)GlcNAc(b1-3)Gal(b1-4)GlcNAc(b1-2)[Gal(b1-4)GlcNAc(b1-3)Gal(b1-4)GlcNAc(b1-6)]Man(a1-6)[Gal(b1-4)GlcNAc(b1-3)Gal(b1-4)GlcNAc(b1-2)Man(a1-3)]Man(b1-4)GlcNAc(b1-4)[Fuc(a1-6)]GlcNAc", "method_in_brief": "as §1"}, "[11]": {"target": "Gal(b1-4)GlcNAc(b1-3)Gal(b1-4)GlcNAc(b1-3)Gal(b1-4)GlcNAc", "method_in_brief": "as §1"}, "[12]": {"target": "Gal(b1-4)GlcNAc(b1-3)Gal(b1-4)GlcNAc(b1-3)Gal(b1-4)GlcNAc(b1-2)Man(a1-3)[Gal(b1-4)GlcNAc(b1-3)Gal(b1-4)GlcNAc(b1-3)Gal(b1-4)GlcNAc(b1-2)Man(a1-6)]Man(b1-4)GlcNAc(b1-4)GlcNAc", "method_in_brief": "as §1"}, "[13]": {"target": "Gal(b1-4)GlcNAc(b1-3)Gal(b1-4)GlcNAc(b1-3)Gal(b1-4)GlcNAc(b1-2)Man(a1-3)[Gal(b1-4)GlcNAc(b1-3)Gal(b1-4)GlcNAc(b1-3)Gal(b1-4)GlcNAc(b1-2)Man(a1-6)]Man(b1-4)GlcNAc(b1-4)[Fuc(a1-6)]GlcNAc", "method_in_brief": "as §1"}, "[14]": {"target": "Gal(b1-4)GlcNAc(b1-3)Gal(b1-4)GlcNAc(b1-3)Gal(b1-4)GlcNAc(b1-2)[Gal(b1-4)GlcNAc(b1-3)Gal(b1-4)GlcNAc(b1-3)Gal(b1-4)GlcNAc(b1-6)]Man(a1-6)[Gal(b1-4)GlcNAc(b1-3)Gal(b1-4)GlcNAc(b1-3)Gal(b1-4)GlcNAc(b1-2)Man(a1-3)]Man(b1-4)GlcNAc(b1-4)[Fuc(a1-6)]GlcNAc", "method_in_brief": "as §1"}, "[15]": {"target": "Gal(b1-4)GlcNAc(b1-3)Gal(b1-4)GlcNAc(b1-3)Gal(b1-4)GlcNAc(b1-3)Gal(b1-4)GlcNAc(b1-2)Man(a1-3)[Gal(b1-4)GlcNAc(b1-3)Gal(b1-4)GlcNAc(b1-3)Gal(b1-4)GlcNAc(b1-3)Gal(b1-4)GlcNAc(b1-2)Man(a1-6)]Man(b1-4)GlcNAc(b1-4)GlcNAc", "method_in_brief": "as §1"}, "[16]": {"target": "Gal(b1-4)GlcNAc(b1-3)Gal(b1-4)GlcNAc(b1-3)Gal(b1-4)GlcNAc(b1-3)Gal(b1-4)GlcNAc(b1-2)Man(a1-3)[Gal(b1-4)GlcNAc(b1-3)Gal(b1-4)GlcNAc(b1-3)Gal(b1-4)GlcNAc(b1-3)Gal(b1-4)GlcNAc(b1-2)Man(a1-6)]Man(b1-4)GlcNAc(b1-4)[Fuc(a1-6)]GlcNAc", "method_in_brief": "as §1"}, "[17]": {"target": "Gal(b1-4)GlcNAc(b1-3)Gal(b1-4)GlcNAc(b1-3)Gal(b1-4)GlcNAc(b1-3)Gal(b1-4)GlcNAc(b1-2)[Gal(b1-4)GlcNAc(b1-3)Gal(b1-4)GlcNAc(b1-3)Gal(b1-4)GlcNAc(b1-3)Gal(b1-4)GlcNAc(b1-6)]Man(a1-6)[Gal(b1-4)GlcNAc(b1-3)Gal(b1-4)GlcNAc(b1-3)Gal(b1-4)GlcNAc(b1-3)Gal(b1-4)GlcNAc(b1-2)Man(a1-3)]Man(b1-4)GlcNAc(b1-4)[Fuc(a1-6)]GlcNAc", "method_in_brief": "as §1"}, "[18]": {"target": "Gal(b1-4)GlcNAc(b1-3)Gal(b1-4)GlcNAc(b1-3)Gal(b1-4)GlcNAc(b1-3)Gal(b1-4)GlcNAc(b1-3)Gal(b1-4)GlcNAc(b1-2)Man(a1-3)[Gal(b1-4)GlcNAc(b1-3)Gal(b1-4)GlcNAc(b1-3)Gal(b1-4)GlcNAc(b1-3)Gal(b1-4)GlcNAc(b1-3)Gal(b1-4)GlcNAc(b1-2)Man(a1-6)]Man(b1-4)GlcNAc(b1-4)GlcNAc", "method_in_brief": "as §1"}, "[19]": {"target": "Gal(b1-4)GlcNAc(b1-3)Gal(b1-4)GlcNAc(b1-3)Gal(b1-4)GlcNAc(b1-3)Gal(b1-4)GlcNAc(b1-3)Gal(b1-4)GlcNAc(b1-2)Man(a1-3)[Gal(b1-4)GlcNAc(b1-3)Gal(b1-4)GlcNAc(b1-3)Gal(b1-4)GlcNAc(b1-3)Gal(b1-4)GlcNAc(b1-3)Gal(b1-4)GlcNAc(b1-2)Man(a1-6)]Man(b1-4)GlcNAc(b1-4)[Fuc(a1-6)]GlcNAc", "method_in_brief": "as §1"}, "[20]": {"target": "Gal(b1-4)GlcNAc(b1-3)Gal(b1-4)GlcNAc(b1-3)Gal(b1-4)GlcNAc(b1-3)Gal(b1-4)GlcNAc(b1-3)Gal(b1-4)GlcNAc(b1-2)[Gal(b1-4)GlcNAc(b1-3)Gal(b1-4)GlcNAc(b1-3)Gal(b1-4)GlcNAc(b1-3)Gal(b1-4)GlcNAc(b1-3)Gal(b1-4)GlcNAc(b1-6)]Man(a1-6)[Gal(b1-4)GlcNAc(b1-3)Gal(b1-4)GlcNAc(b1-3)Gal(b1-4)GlcNAc(b1-3)Gal(b1-4)GlcNAc(b1-3)Gal(b1-4)GlcNAc(b1-2)Man(a1-3)]Man(b1-4)GlcNAc(b1-4)[Fuc(a1-6)]GlcNAc", "method_in_brief": "as §1"}, "[21]": {"target": "Gal(b1-4)GlcNAc(b1-3)Gal(b1-4)GlcNAc(b1-3)Gal(b1-4)GlcNAc(b1-3)Gal(b1-4)GlcNAc(b1-3)Gal(b1-4)GlcNAc(b1-3)Gal(b1-4)GlcNAc(b1-2)Man(a1-3)[Gal(b1-4)GlcNAc(b1-3)Gal(b1-4)GlcNAc(b1-3)Gal(b1-4)GlcNAc(b1-3)Gal(b1-4)GlcNAc(b1-3)Gal(b1-4)GlcNAc(b1-3)Gal(b1-4)GlcNAc(b1-2)Man(a1-6)]Man(b1-4)GlcNAc(b1-4)GlcNAc", "method_in_brief": "as §1"}, "[22]": {"target": "Gal(b1-4)GlcNAc(b1-3)Gal(b1-4)GlcNAc(b1-3)GalNAc", "method_in_brief": "as §1"}, "[23]": {"target": "Gal(b1-4)GlcNAc(b1-3)Gal(b1-4)GlcNAc(b1-3)[Gal(b1-4)GlcNAc(b1-3)Gal(b1-4)GlcNAc(b1-6)]GalNAc", "method_in_brief": "as §1"}}, "note": "The list shows a part of the results.", "data": [{"binder": "Als3-2 (Candida albicans) (protein) KTITGVFNSFNSLTWSNAATYNYKGPGTPTWNAVLGWSLDGTSASPGDTFTLNMPCVFKFTTSQTSVDLTAHGVKYATCQFQAGEEFMTFSTLTCTVSNTLTPSIKALGTVTLPLAFNVGGTGSSVDLEDSKCFTAGTNTVTFNDGGKKISINVDFERSNVDPKGYLTD", "values": [{"measurement": "glycan array binding signal (z-score)", "setting": "[1]", "value": -0.599}, {"measurement": "glycan array binding signal (z-score)", "setting": "[2]", "value": -0.701}, {"measurement": "glycan array binding signal (z-score)", "setting": "[3]", "value": -0.344}, {"measurement": "glycan array binding signal (z-score)", "setting": "[4]", "value": -0.612}, {"measurement": "glycan array binding signal (z-score)", "setting": "[5]", "value": -0.332}, {"measurement": "glycan array binding signal (z-score)", "setting": "[6]", "value": -0.352}, {"measurement": "glycan array binding signal (z-score)", "setting": "[7]", "value": 1.14}, {"measurement": "glycan array binding signal (z-score)", "setting": "[8]", "value": 1.04}, {"measurement": "glycan array binding signal (z-score)", "setting": "[9]", "value": 2.24}, {"measurement": "glycan array binding signal (z-score)", "setting": "[10]", "value": 1.87}, {"measurement": "glycan array binding signal (z-score)", "setting": "[11]", "value": -0.495}, {"measurement": "glycan array binding signal (z-score)", "setting": "[12]", "value": 3.26}, {"measurement": "glycan array binding signal (z-score)", "setting": "[13]", "value": 2.66}, {"measurement": "glycan array binding signal (z-score)", "setting": "[14]", "value": -0.345}, {"measurement": "glycan array binding signal (z-score)", "setting": "[15]", "value": 2.75}, {"measurement": "glycan array binding signal (z-score)", "setting": "[16]", "value": 1.51}, {"measurement": "glycan array binding signal (z-score)", "setting": "[17]", "value": 1.73}, {"measurement": "glycan array binding signal (z-score)", "setting": "[18]", "value": 5.24}, {"measurement": "glycan array binding signal (z-score)", "setting": "[19]", "value": 3.26}, {"measurement": "glycan array binding signal (z-score)", "setting": "[20]", "value": 3.16}, {"measurement": "glycan array binding signal (z-score)", "setting": "[21]", "value": 0.031}, {"measurement": "glycan array binding signal (z-score)", "setting": "[22]", "value": -0.265}, {"measurement": "glycan array binding signal (z-score)", "setting": "[23]", "value": -0.05}]}]}
